The full ranking holds about 81,000 sequences; the median of “one-hybrid fitness for binding parS DNA” is about -0.17, and the highest 2% start at about 0.51. This is one part of the list.
B1: Caulobacter ParB omega fusion; a variant is named by its letters at X, in order, B8GW30 (parent)
chain: MESVVVGEPGMSEGRRGLGRGLSALLGEVDAAPAQAPGEQLGGSREAPIEILQRNPDQPRRTFREEDLEDLSNSIREKGVLQPILVRPSPDTAGEYQIVAGERAWRAAQRAGLKTVPIMVRELDDLAVLEIGIIENVQRADLNVLEEALSYKVLMEKFERTQENIAQTIGKSXSHVANXMRLLXLPDEVQSYLVSGELTAXHARAIAAAADPVALAKQIIEGGLSVRETEALARKAPNLSAGKSKGGRPPRVKDTDTQALESDLSSVLGLDVSIDHRGSTGTLTITYATLEQLDDLCNRLTRGI

Variants of: B1
Assay: one-hybrid fitness for binding parS DNA (scaled: cognate 1, non-cognate 0); higher = stronger binding
Conditions: with parS DNA site
In short: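 Selection: bacterial one-hybrid in E. coli USO, HIS3 reporter with the site 19 bp from the promoter, 48 hours at 37°C on M9-minus-histidine plus 0.1 mM IPTG and 5 mM 3-AT. Libraries were Caulobacter ParB with four randomised specificity codons, sequenced on Illumina before and after selection. Fitness is the rescaled log change in variant-to-wild-type read ratio, anchored to the cognate and non-cognate sites.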

Variant	one-hybrid fitness for binding parS DNA
YPKL	≤ 0.2
YFRT	≤ 0.2
GSGR	≤ 0.2
VFDW	≤ 0.2
DQRE	≤ 0.2
GNKC	≤ 0.2
HRYN	≤ 0.2
DTPN	≤ 0.2
CNLC	≤ 0.2
HLLA	≤ 0.2
QRLY	≤ 0.2
RPKT	≤ 0.2
PPRP	≤ 0.2
ASLR	≤ 0.2
MNSR	≤ 0.2
GTRL	≤ 0.2
KGLR	≤ 0.2
YNQY	≤ 0.2
EKAF	≤ 0.2
IYTL	≤ 0.2
DLWV	≤ 0.2
TRPI	≤ 0.2
VVLA	≤ 0.2
EQAC	≤ 0.2

Variant	one-hybrid fitness for binding parS DNA
DCKS	≤ 0.2
SPMG	≤ 0.2
YRQY	≤ 0.2
QIAA	≤ 0.2
YHQA	≤ 0.2
LTYV	≤ 0.2
LRRG	≤ 0.2
KVVR	≤ 0.2
PDMM	≤ 0.2
PCMQ	0.408
KEHW	≤ 0.2
EILR	≤ 0.2
VKIT	≤ 0.2
TPCF	≤ 0.2
CYAG	≤ 0.2
RMLS	1.04
QRQK	≤ 0.2
GYWN	≤ 0.2
NTIM	≤ 0.2
PAYR	≤ 0.2
VTKW	≤ 0.2
QWTR	≤ 0.2
CVRR	≤ 0.2
STLK	≤ 0.2

Variant	one-hybrid fitness for binding parS DNA
DEGS	≤ 0.2
IRTN	≤ 0.2
LKAT	≤ 0.2
KQYS	≤ 0.2
HIVW	≤ 0.2
ITYV	≤ 0.2
AMST	≤ 0.2
VDWC	≤ 0.2
QSHN	≤ 0.2
AHKF	≤ 0.2
LAHN	≤ 0.2
AILL	≤ 0.2
LPQV	≤ 0.2
FLNY	≤ 0.2
EVRY	≤ 0.2
YTQL	≤ 0.2
QPQA	≤ 0.2
YLSV	≤ 0.2
EYGW	≤ 0.2
IDPS	≤ 0.2
DSGM	≤ 0.2
LTEW	≤ 0.2
QVVV	≤ 0.2
QRQD	≤ 0.2

Variant	one-hybrid fitness for binding parS DNA
VHAT	≤ 0.2
QWCC	≤ 0.2
REKR	≤ 0.2
HLHD	≤ 0.2
VRCG	≤ 0.2
LSQC	≤ 0.2
ITVC	≤ 0.2
LVAD	≤ 0.2
PGSS	≤ 0.2
VDYL	≤ 0.2
YLDR	≤ 0.2
KDSL	≤ 0.2
PVPP	≤ 0.2
VGMC	≤ 0.2
ITHH	≤ 0.2
PPIR	≤ 0.2
LSNN	≤ 0.2
SYYP	≤ 0.2
YSFS	≤ 0.2
EWSG	≤ 0.2
NMHF	≤ 0.2
CRCY	≤ 0.2
QFRG	≤ 0.2
QHAQ	≤ 0.2

Variant	one-hybrid fitness for binding parS DNA
YLTN	≤ 0.2
STFW	≤ 0.2
HTNH	≤ 0.2
EYVT	≤ 0.2
NMTS	≤ 0.2
SNCG	≤ 0.2
SPDK	≤ 0.2
AWDG	≤ 0.2
QCMG	≤ 0.2
QIRA	≤ 0.2
AYGM	≤ 0.2
NAQG	≤ 0.2
FQTH	≤ 0.2
SYKS	≤ 0.2
GAKC	≤ 0.2
YNTD	≤ 0.2
PTMY	≤ 0.2
PDRL	≤ 0.2
CNIV	≤ 0.2
QKHV	≤ 0.2
PLPM	≤ 0.2
NLCS	≤ 0.2
QQTN	≤ 0.2
HACS	≤ 0.2

Variant	one-hybrid fitness for binding parS DNA
GIAH	≤ 0.2
KHSF	≤ 0.2
PFPE	≤ 0.2
AGAW	≤ 0.2
HHRG	≤ 0.2
YPMY	≤ 0.2
CYTR	≤ 0.2
LILQ	≤ 0.2
CPAF	≤ 0.2
SKQV	≤ 0.2
LNTR	≤ 0.2
LGSW	≤ 0.2
CTHV	≤ 0.2
DRYG	≤ 0.2
PEGT	≤ 0.2
DLDA	≤ 0.2
LMGC	≤ 0.2
IPYS	≤ 0.2
MGTW	≤ 0.2
DSSQ	≤ 0.2
RQSI	≤ 0.2
QTNP	≤ 0.2
CNST	≤ 0.2
AQTL	≤ 0.2

Variant	one-hybrid fitness for binding parS DNA
DTGR	≤ 0.2
QGSP	≤ 0.2
FPEP	≤ 0.2
VPCA	≤ 0.2
LIIC	≤ 0.2
NYTF	≤ 0.2
IINN	≤ 0.2
DLPS	≤ 0.2
QIHL	≤ 0.2
AAYI	≤ 0.2
FPVG	≤ 0.2
AGPP	≤ 0.2
LLGC	≤ 0.2
RLKC	0.835
TPRL	≤ 0.2
MLPY	≤ 0.2
ISIR	≤ 0.2
FLCS	≤ 0.2
RKFV	≤ 0.2
MRAR	≤ 0.2
RFSL	≤ 0.2
LEYT	≤ 0.2
SDRM	≤ 0.2
SNIY	≤ 0.2

Variant	one-hybrid fitness for binding parS DNA
KTDT	≤ 0.2
SAFR	≤ 0.2
SYPT	≤ 0.2
RAMC	0.956
AVLP	≤ 0.2
MHAV	≤ 0.2
QDWR	≤ 0.2
PTVV	≤ 0.2
RHGS	0.888
PRED	≤ 0.2
ADHC	≤ 0.2
RESG	0.217
YDVR	≤ 0.2
TKYA	≤ 0.2
KTRY	≤ 0.2
AFYS	≤ 0.2
DAFT	≤ 0.2
MGGS	≤ 0.2
VYEG	≤ 0.2
PCPC	≤ 0.2
WDLT	≤ 0.2
CFRR	≤ 0.2
ICNS	≤ 0.2
EVLG	≤ 0.2

Variant	one-hybrid fitness for binding parS DNA
DTDS	≤ 0.2
ECMG	≤ 0.2
WAES	≤ 0.2
SDQF	≤ 0.2
PAVT	≤ 0.2
SDNG	≤ 0.2
EKIR	≤ 0.2
THER	≤ 0.2
NYIS	≤ 0.2
LPNS	≤ 0.2
HGVG	≤ 0.2
QNHF	≤ 0.2
WMHM	≤ 0.2
IANA	≤ 0.2
YVYT	≤ 0.2
VGSW	≤ 0.2
RVCF	0.249
YQPY	≤ 0.2
AYKL	≤ 0.2
PEMR	≤ 0.2
MERK	≤ 0.2
RHFF	≤ 0.2
WTIR	≤ 0.2
ENMR	≤ 0.2

Variant	one-hybrid fitness for binding parS DNA
GTYL	≤ 0.2
YNSA	≤ 0.2
QEWG	≤ 0.2
RVKF	0.355
LYTD	≤ 0.2
QVQT	≤ 0.2
GPEC	≤ 0.2
EYDL	≤ 0.2
NVLV	≤ 0.2
INWR	≤ 0.2
QPSL	≤ 0.2
RDDM	≤ 0.2
QWGG	≤ 0.2
KYYG	≤ 0.2
AHVT	≤ 0.2
TRAP	≤ 0.2
MLAY	≤ 0.2
VMET	≤ 0.2
LYPH	≤ 0.2
MTMK	≤ 0.2
LNVC	≤ 0.2
MQNL	≤ 0.2
QYVC	≤ 0.2
YPET	≤ 0.2

Variant	one-hybrid fitness for binding parS DNA
WAAS	≤ 0.2
LKDL	≤ 0.2
SISC	≤ 0.2
TDVE	≤ 0.2
SIRK	≤ 0.2
NDLR	≤ 0.2
PVMG	≤ 0.2
AHMC	≤ 0.2
HGKC	≤ 0.2
RCNF	0.274
WKSI	≤ 0.2
PWLY	≤ 0.2
LTKW	≤ 0.2
VHSS	≤ 0.2
NDKR	≤ 0.2
TDTP	≤ 0.2
YFAF	≤ 0.2
HKYW	≤ 0.2
FLTW	≤ 0.2
GVVV	≤ 0.2
HAGE	≤ 0.2
GVTT	≤ 0.2
VIDS	≤ 0.2
NPTV	≤ 0.2

Variant	one-hybrid fitness for binding parS DNA
AVNC	≤ 0.2
KRIY	≤ 0.2
SGQN	≤ 0.2
RCAY	0.454
DLAY	≤ 0.2
CTTR	≤ 0.2
EGCK	≤ 0.2
KTSN	≤ 0.2
MGQM	≤ 0.2
QMLS	≤ 0.2
KIAT	≤ 0.2
NTTS	≤ 0.2
PQWR	≤ 0.2
QKSS	≤ 0.2
AEAV	≤ 0.2
NDRR	≤ 0.2
QCLG	≤ 0.2
KIEG	≤ 0.2
PLTN	≤ 0.2
CHNS	≤ 0.2
LPEN	≤ 0.2
RFCA	0.518
RCGM	0.319
YLDF	≤ 0.2

Variant	one-hybrid fitness for binding parS DNA
GLRG	≤ 0.2
FRTL	≤ 0.2
WYKC	≤ 0.2
SSKY	≤ 0.2
YSSL	≤ 0.2
SYCN	≤ 0.2
ADAI	≤ 0.2
AHKV	≤ 0.2
ASQC	≤ 0.2
HFGT	≤ 0.2
PSNT	≤ 0.2
AKIS	≤ 0.2
DFNR	≤ 0.2
DKRR	≤ 0.2
PMEI	≤ 0.2
KATV	≤ 0.2
RIHS	0.97
QGKR	≤ 0.2
